{"source": "the supplement of paper PMC8728848", "binders": {"B1": {"name": "CVNH0 (Neurospora crassa), Q7S6U4 (protein)", "chain": "GSHIGPYMSFHVTAEDARIEVRDNRTILFARLRREDGEWNDASYELDQIIGNNDGHFQWGGQNFTETAEDIRFHPKEGAAEQPILRARLRDCNGEFHDRDVNLTEIVENVNGEFQAKF"}}, "test_in_all_cases": "glycan array binding signal (z-score within array); higher = stronger binding", "conditions_in_all_cases": "glycan notation: IUPAC condensed, linker removed", "key": {"Gal6S(b1-4)Glc": {"target": "Gal6S(b1-4)Glc", "in_short": "(§1)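 Glycan array data were curated from 3228 arrays in the Consortium for Functional Glycomics database and kept only where the protein sequence was available. Glycan names were converted to IUPAC-condensed notation, and columns mapping to the same glycan were averaged. The binding signal is a within-array Z-score, averaged across arrays of the same protein sequence at different concentrations or buffers and across linkers. Negative Z-scores can be read as non-binding.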"}, "Gal6S(b1-4)Glc6S": {"target": "Gal6S(b1-4)Glc6S", "in_short": "as §1"}, "Gal6S(b1-4)GlcNAc": {"target": "Gal6S(b1-4)GlcNAc", "in_short": "as §1"}, "GalNAc(a1-3)Gal": {"target": "GalNAc(a1-3)Gal", "in_short": "as §1"}, "GalNAc(a1-3)GalNAc": {"target": "GalNAc(a1-3)GalNAc", "in_short": "as §1"}, "[1]": {"target": "GalNAc(b1-3)Gal(a1-4)Gal(b1-4)GlcNAc", "in_short": "as §1"}, "GalNAc(b1-4)GlcNAc": {"target": "GalNAc(b1-4)GlcNAc", "in_short": "as §1"}, "Glc(a1-4)Glc": {"target": "Glc(a1-4)Glc", "in_short": "as §1"}, "Glc(a1-6)Glc(a1-6)Glc": {"target": "Glc(a1-6)Glc(a1-6)Glc", "in_short": "as §1"}, "Glc(b1-4)Glc": {"target": "Glc(b1-4)Glc", "in_short": "as §1"}, "Glc(b1-6)Glc": {"target": "Glc(b1-6)Glc", "in_short": "as §1"}, "GlcA(b1-3)Gal": {"target": "GlcA(b1-3)Gal", "in_short": "as §1"}, "GlcA(b1-6)Gal": {"target": "GlcA(b1-6)Gal", "in_short": "as §1"}, "[2]": {"target": "GlcNAc(a1-3)Gal(b1-4)GlcNAc", "in_short": "as §1"}, "[3]": {"target": "GlcNAc(a1-6)Gal(b1-4)GlcNAc", "in_short": "as §1"}, "[4]": {"target": "GlcNAc(b1-2)Gal(b1-3)GlcNAc", "in_short": "as §1"}, "[5]": {"target": "GlcNAc(b1-2)Man(a1-3)[GlcNAc(b1-2)Man(a1-6)]Man(b1-4)GlcNAc(b1-4)GlcNAc", "in_short": "as §1"}, "GlcNAc(b1-3)Gal": {"target": "GlcNAc(b1-3)Gal", "in_short": "as §1"}, "[6]": {"target": "GlcNAc(b1-3)Gal(b1-3)GalNAc", "in_short": "as §1"}, "GlcNAc(b1-3)Gal(b1-4)Glc": {"target": "GlcNAc(b1-3)Gal(b1-4)Glc", "in_short": "as §1"}, "[7]": {"target": "GlcNAc(b1-3)Gal(b1-4)GlcNAc", "in_short": "as §1"}, "[8]": {"target": "GlcNAc(b1-3)Gal(b1-4)GlcNAc(b1-3)Gal(b1-4)GlcNAc", "in_short": "as §1"}, "GlcNAc(b1-3)GalNAc": {"target": "GlcNAc(b1-3)GalNAc", "in_short": "as §1"}, "[9]": {"target": "GlcNAc(b1-3)[GlcNAc(b1-4)][GlcNAc(b1-6)]GlcNAc", "in_short": "as §1"}, "[10]": {"target": "GlcNAc(b1-3)[GlcNAc(b1-6)]Gal(b1-4)GlcNAc", "in_short": "as §1"}, "[11]": {"target": "GlcNAc(b1-3)[GlcNAc(b1-6)]GlcNAc", "in_short": "as §1"}, "[12]": {"target": "GlcNAc(b1-4)Gal(b1-4)GlcNAc", "in_short": "as §1"}, "[13]": {"target": "GlcNAc(b1-4)GlcNAc(b1-4)GlcNAc", "in_short": "as §1"}, "[14]": {"target": "GlcNAc(b1-4)GlcNAc(b1-4)GlcNAc(b1-4)GlcNAc(b1-4)GlcNAc", "in_short": "as §1"}, "[15]": {"target": "GlcNAc(b1-4)GlcNAc(b1-4)GlcNAc(b1-4)GlcNAc(b1-4)GlcNAc(b1-4)GlcNAc", "in_short": "as §1"}, "[16]": {"target": "GlcNAc(b1-4)[GlcNAc(b1-6)]GalNAc", "in_short": "as §1"}, "[17]": {"target": "GlcNAc(b1-6)Gal(b1-4)GlcNAc", "in_short": "as §1"}, "GlcNAc(b1-6)GalNAc": {"target": "GlcNAc(b1-6)GalNAc", "in_short": "as §1"}, "Kdn(a2-3)Gal(b1-3)GlcNAc": {"target": "Kdn(a2-3)Gal(b1-3)GlcNAc", "in_short": "as §1"}, "Kdn(a2-3)Gal(b1-4)GlcNAc": {"target": "Kdn(a2-3)Gal(b1-4)GlcNAc", "in_short": "as §1"}, "[18]": {"target": "Man(a1-2)Man(a1-2)Man(a1-3)Man", "in_short": "as §1"}, "[19]": {"target": "Man(a1-2)Man(a1-2)Man(a1-3)[Man(a1-2)Man(a1-3)[Man(a1-2)Man(a1-6)]Man(a1-6)]Man(b1-4)GlcNAc(b1-4)GlcNAc", "in_short": "as §1"}, "[20]": {"target": "Man(a1-2)Man(a1-2)Man(a1-3)[Man(a1-2)Man(a1-6)[Man(a1-3)]Man(a1-6)]Man(b1-4)GlcNAc(b1-4)GlcNAc", "in_short": "as §1"}, "[21]": {"target": "Man(a1-2)Man(a1-2)Man(a1-6)[Man(a1-3)]Man", "in_short": "as §1"}, "Man(a1-2)Man(a1-3)Man": {"target": "Man(a1-2)Man(a1-3)Man", "in_short": "as §1"}, "[22]": {"target": "Man(a1-2)Man(a1-3)[Man(a1-2)Man(a1-6)]Man", "in_short": "as §1"}, "[23]": {"target": "Man(a1-2)Man(a1-3)[Man(a1-3)[Man(a1-6)]Man(a1-6)]Man(b1-4)GlcNAc(b1-4)GlcNAc", "in_short": "as §1"}, "[24]": {"target": "Man(a1-2)Man(a1-3)[Man(a1-6)]Man(a1-6)[Man(a1-2)Man(a1-3)]Man(b1-4)GlcNAc(b1-4)GlcNAc", "in_short": "as §1"}, "Man(a1-3)[Man(a1-6)]Man": {"target": "Man(a1-3)[Man(a1-6)]Man", "in_short": "as §1"}, "[25]": {"target": "Man(a1-3)[Man(a1-6)]Man(a1-6)[Man(a1-3)]Man(b1-4)GlcNAc(b1-4)GlcNAc", "in_short": "as §1"}}, "note": "The list shows a part of the results."}
{"binder": "B1", "values": [{"measurement": "glycan array binding signal (z-score)", "setting": "Gal6S(b1-4)Glc", "value": -0.372}, {"measurement": "glycan array binding signal (z-score)", "setting": "Gal6S(b1-4)Glc6S", "value": -0.362}, {"measurement": "glycan array binding signal (z-score)", "setting": "Gal6S(b1-4)GlcNAc", "value": -0.425}, {"measurement": "glycan array binding signal (z-score)", "setting": "GalNAc(a1-3)Gal", "value": -0.409}, {"measurement": "glycan array binding signal (z-score)", "setting": "GalNAc(a1-3)GalNAc", "value": -0.394}, {"measurement": "glycan array binding signal (z-score)", "setting": "[1]", "value": 3.29}, {"measurement": "glycan array binding signal (z-score)", "setting": "GalNAc(b1-4)GlcNAc", "value": -0.412}, {"measurement": "glycan array binding signal (z-score)", "setting": "Glc(a1-4)Glc", "value": -0.391}, {"measurement": "glycan array binding signal (z-score)", "setting": "Glc(a1-6)Glc(a1-6)Glc", "value": 2.74}, {"measurement": "glycan array binding signal (z-score)", "setting": "Glc(b1-4)Glc", "value": 2.35}, {"measurement": "glycan array binding signal (z-score)", "setting": "Glc(b1-6)Glc", "value": 3.13}, {"measurement": "glycan array binding signal (z-score)", "setting": "GlcA(b1-3)Gal", "value": -0.25}, {"measurement": "glycan array binding signal (z-score)", "setting": "GlcA(b1-6)Gal", "value": -0.428}, {"measurement": "glycan array binding signal (z-score)", "setting": "[2]", "value": -0.408}, {"measurement": "glycan array binding signal (z-score)", "setting": "[3]", "value": -0.422}, {"measurement": "glycan array binding signal (z-score)", "setting": "[4]", "value": -0.349}, {"measurement": "glycan array binding signal (z-score)", "setting": "[5]", "value": -0.413}, {"measurement": "glycan array binding signal (z-score)", "setting": "GlcNAc(b1-3)Gal", "value": -0.416}, {"measurement": "glycan array binding signal (z-score)", "setting": "[6]", "value": -0.4}, {"measurement": "glycan array binding signal (z-score)", "setting": "GlcNAc(b1-3)Gal(b1-4)Glc", "value": -0.428}, {"measurement": "glycan array binding signal (z-score)", "setting": "[7]", "value": -0.4}, {"measurement": "glycan array binding signal (z-score)", "setting": "[8]", "value": -0.43}, {"measurement": "glycan array binding signal (z-score)", "setting": "GlcNAc(b1-3)GalNAc", "value": -0.424}, {"measurement": "glycan array binding signal (z-score)", "setting": "[9]", "value": -0.391}, {"measurement": "glycan array binding signal (z-score)", "setting": "[10]", "value": -0.429}, {"measurement": "glycan array binding signal (z-score)", "setting": "[11]", "value": -0.428}, {"measurement": "glycan array binding signal (z-score)", "setting": "[12]", "value": -0.397}, {"measurement": "glycan array binding signal (z-score)", "setting": "[13]", "value": -0.399}, {"measurement": "glycan array binding signal (z-score)", "setting": "[14]", "value": -0.374}, {"measurement": "glycan array binding signal (z-score)", "setting": "[15]", "value": 0.522}, {"measurement": "glycan array binding signal (z-score)", "setting": "[16]", "value": -0.417}, {"measurement": "glycan array binding signal (z-score)", "setting": "[17]", "value": -0.407}, {"measurement": "glycan array binding signal (z-score)", "setting": "GlcNAc(b1-6)GalNAc", "value": 0.422}, {"measurement": "glycan array binding signal (z-score)", "setting": "Kdn(a2-3)Gal(b1-3)GlcNAc", "value": -0.44}, {"measurement": "glycan array binding signal (z-score)", "setting": "Kdn(a2-3)Gal(b1-4)GlcNAc", "value": -0.442}, {"measurement": "glycan array binding signal (z-score)", "setting": "[18]", "value": 2.87}, {"measurement": "glycan array binding signal (z-score)", "setting": "[19]", "value": 3.89}, {"measurement": "glycan array binding signal (z-score)", "setting": "[20]", "value": 0.597}, {"measurement": "glycan array binding signal (z-score)", "setting": "[21]", "value": 3.68}, {"measurement": "glycan array binding signal (z-score)", "setting": "Man(a1-2)Man(a1-3)Man", "value": -0.112}, {"measurement": "glycan array binding signal (z-score)", "setting": "[22]", "value": 4.06}, {"measurement": "glycan array binding signal (z-score)", "setting": "[23]", "value": -0.376}, {"measurement": "glycan array binding signal (z-score)", "setting": "[24]", "value": -0.132}, {"measurement": "glycan array binding signal (z-score)", "setting": "Man(a1-3)[Man(a1-6)]Man", "value": -0.235}, {"measurement": "glycan array binding signal (z-score)", "setting": "[25]", "value": -0.298}]}
